Measured values from the RNAGym collection of RNA variant scans (doi:10.7554/elife.90254).
The source gives no read counts; variants with many changes may rest on few reads.

B1: LINE1-full (parent)
chain: UACGUAGGUGGUUUUCCCCUGAUAGUGCUAAGGGGGCCUGGAAGUUUGGACUGGGCAGAGCUCAACACAGCGUGGCAAAGUGGCUGUGGCUAGACUGCCUCUCUGGAUUCCUCGUCACUCAGCAGGGCAUCUCUGAGAGAAAUGCC

Variants of: B1
Assay: self-cleavage, relative activity (ratio to wild type); higher = more cleavage; in vitro, sequencing; the parent is a self-cleaving ribozyme

| Variant | self-cleavage |
| --- | --- |
| U9A G83A A136G | 1.29 |
| G7A U26A U87C A107G | 0.16 |
| U13C U15C A59U U85A U119C | 0.25 |
| U13C U87C U96C | 0 |
| A2C U12A U14A | 1.22 |
| U9A U12C A22U U85A U102C | 0.3 |
| U13C A57G U132C | 0.72 |
| U47C A64U A78G A138U | 0.5 |
| A43G U45C A79G A124U A142G | 0 |
| U115C U119C A138G | 1.72 |
| A31G C66U G93U C113A | 0.02 |
| U26C U47A U109A | 1.84 |
| U9C U12C U45C A78U C131U | 1.71 |
| U13C U52C U62C U96A | 0 |
| A42G G54A U104C A141G | 0.44 |
| G10U G105U A142G | 1.75 |
| U39C A79G C145A | 0.98 |
| U39C A65G C145G | 0 |
| U47C U73C U100A | 1.67 |
| U12C A57U U119A A138G | 0.24 |
| U52A A57U U87A | 0 |
| U46C U52C A77U A136G | 2.1 |
| U13C A24C U73G U109A | 0 |
| U1C A42G U104A A117G | 0.38 |

| Variant | self-cleavage |
| --- | --- |
| G8C A59G C146U | 0.14 |
| U39A G48A A65C A138G | 0.04 |
| U73A U81A U143C | 1.68 |
| U14C A57G A107G | 1.84 |
| A6G U29C C38U A65G | 0.42 |
| C51U U108C A136G | 1.88 |
| U14C A43U A121G | 0.67 |
| G36A U52C U73A A92G | 0.35 |
| U13A A94G A141G | 0.31 |
| U39A C51A A107G A141G | 1.34 |
| U15C U47A A67G U132C | 0.77 |
| A43C U96A U104C U112C U132C A142G | 0 |
| U119C A124G U134C | 1.21 |
| U12C U39C G137A A140G | 0.81 |
| A59G A77U A92G | 0.07 |
| A57G C63U A78G G126U | 0.22 |
| U130A A136G U143C | 1.36 |
| A22G A78U A142C | 1.84 |
| U23C A43G A140G | 1.11 |
| A6U C28U A43G U104A | 0.6 |
| U23C A64G U119A | 0.61 |
| A92G A124U A129G | 0 |
| U12C U15C A30G A50G G55C G74A | 0.35 |
| A107U U119A A121U | 1.08 |

| Variant | self-cleavage |
| --- | --- |
| U46A U85C A140U | 0.17 |
| U12C C66U A117U | 0.03 |
| U26C A31U U39C U46C A94G U119A | 0 |
| C68U C128U U132C | 0.34 |
| U23A U87A U115A A121U A129U A136U | 0.14 |
| U29C U47A U62C | 0.12 |
| G36C A43U A57G A136U | 0.57 |
| U5C U85C C118A A140G | 0.46 |
| U5G U46C A77G U112C A124U | 0.94 |
| A6G U9C A121G | 1.64 |
| U9C U15A U26C A140G | 0.84 |
| G8A A24G G35A A141G | 0.85 |
| U1A U39G A140G U143A | 0.61 |
| U62C A79G U134G | 0.1 |
| A50G U52C A138G | 1.84 |
| A67U U112C U132A | 0.15 |
| A59G U102A A129G | 0 |
| G7A G54A A124G U143A | 0.28 |
| U45A A50U U115A A138G | 1.06 |
| U45C U73A U108C | 2.67 |
| U1C U14C A42G C98U U112C | 1.29 |
| G7U U62C A136G | 0.02 |
| U12C U62C A129U | 0.13 |
| U12A A78G G126U A142G | 0.84 |

| Variant | self-cleavage |
| --- | --- |
| C19U A92G U104A | 0.07 |
| U15C U39C U85A | 0.02 |
| U91C A94U U104C | 0.5 |
| A22U A59G U108C U115C | 0.4 |
| A31G G35A A57G | 0.6 |
| U12C U73A U85C U96C A129G | 0 |
| U15C U87A U96C A129G | 0.64 |
| U9C A43G U47C | 2.83 |
| U39A U87A U102A U132C A142G | 0.07 |
| U15C A30G U134G | 1.15 |
| U5A A92G A136G A140G | 0.2 |
| U47C A59G U87A U132C | 0.2 |
| U12G U15C C95U U96C U119C U134C | 0 |
| U20A A79G G122A U134A | 1.35 |
| U62C A117U G139C | 0.05 |
| U13C U20C G21U G58A U73C | 0.1 |
| A67U A92G C95A A124G | 0.06 |
| U5C G7A A24C U143C | 1.15 |
| U5C U14G U81A U87C A124G | 0.48 |
| A31G A142U C146U | 1.45 |
| U14A U45A A77G A79G A117U | 1.53 |
| U26C A43C U132C | 1.78 |
| U5A C111A A141G | 1.51 |
| A22U A136G A141G | 2.45 |

| Variant | self-cleavage |
| --- | --- |
| U96A U100C U108C A121G | 0.19 |
| C3U U62A A107G | 0.08 |
| U20G U47A G144U | 0.88 |
| U14C A94G G127C | 0.37 |
| U9C A30G A42G A107G | 1.53 |
| U1C U45G U134C | 0.97 |
| U14C U23C A138G | 0.77 |
| U14A U108C A121U C131U | 0.64 |
| U45C A79U G83A | 1.1 |
| U29A A50G U85A | 0.12 |
| U14A A30G U39C | 0 |
| U15C U46C U47A A65U A121G | 0.34 |
| U1C U14C A64G A69C | 0.38 |
| U12C U20C G21C A77G G86A | 0.47 |
| U73C A79U A92G | 0.23 |
| A42U A64U A92G A94U U100C A141G | 0.12 |
| G33U A77G U102A | 2.15 |
| A24U A42G C61U U100C U132C U143G | 0.08 |
| U52A A65G G74A U102C | 0.02 |
| A67U U85C C90U U115A | 0.04 |
| U20C A77G U130C | 2.63 |
| G10U A79G A142G | 1.11 |
| U15C A24G A42U | 0.46 |
| U1C U96C A136G | 0.38 |

| Variant | self-cleavage |
| --- | --- |
| C3U A42U A50G U52A A69U | 0.07 |
| U12C A94G U108C A129G | 0 |
| U15C U46A G54A U73G | 0.28 |
| A94G A107G U115A | 0.48 |
| U73G A121U U143C | 1.73 |
| U9A U46C C95A | 0.1 |
| U26G A77G A124G A141G | 0.92 |
| U15A U112C A124G | 0.25 |
| G8A U29C U108C U130C | 0 |
| A22C U39A A117U | 2.13 |
| U9C U14C A141G | 0.24 |
| A43U A67G A69U U130C | 0.23 |
| A43G U45C A69G U87A A138G | 0.2 |
| U15A A92C U134C | 0.11 |
| A2G U12C U85A | 0.07 |
| U9C A42U C98U U100G U108C C133U | 0.71 |
| U15A U47G U52A U130C A140G | 1.2 |
| G33U A77G U81A | 2.61 |
| G36A U39A A42G A64G | 0.13 |
| U39C U73C A94U | 0.29 |
| U47C U52C U87A A136G | 0.09 |
| C37U U62C A69U A77G U91C A92G U108A A141G | 0 |
| G72U G139C A140G | 1.44 |
| U15C U62A U119C | 0.14 |

| Variant | self-cleavage |
| --- | --- |
| C28U A67G U91C U130C | 0 |
| G35U U81C U143A | 1.57 |
| G27A A59G U73A A136G | 0.14 |
| A50G U81A A121G | 1.23 |
| U20C U100A U132C A142C | 2.07 |
| U100A C118U G144U | 0.62 |
| U20C U62G C63U G80A | 0.03 |
| U45A U132C A136U | 1.15 |
| U102C G114A A136U | 2.04 |
| A22U U81A U100C U132C A142G | 0 |
| A57U U96A U109C | 0.27 |
| U14C U15C A30G | 0 |
| C71A A77G A124U | 0.35 |
| G32A A42G C68A A107G | 0.07 |
| A69C U108C A121C A124U | 0 |
| A65G U109G A136U | 0 |
| U46C G72A U87C U112C | 0.16 |
| U13C A30G U109C A121U U132C | 0.77 |
| U14C A59U G83A U102C | 0.5 |
| A30U U39C A64G A136G | 1.15 |
| A69G U100C G144A | 0.98 |
| C37U U81G A124U U143C | 0.82 |
| A2G G89A U112C A136U | 0.09 |
